# Data: PubChem BioAssay AID651820 (National Center for Advancing Translational Sciences (NCATS), 2012)
# Out of some 340,000 compounds screened, about 12,000 (3.5%) were called active. This list was built around the results that the source calls inconclusive (neither active nor inactive); the mix of calls is not that of the screen. Calls come from the whole dose curve; as a rule, active = well fitted inhibition curve with a large enough effect; inconclusive = small, poorly fitted or top-dose-only effect, or another doubt; inactive = no such curve, though single readings can be large or run the other way. No potency is given beside an inconclusive call; the fits are too rough.
# Test: qHTS Assay for Inhibitors of Hepatitis C Virus (HCV)
# Settings: Huh7.5.1 HCVcc-Cre (HCVcc is cell-culture hepatitis C virus) infection, luciferase reporter, 44 h; series mostly up to 41.8 µM
# Outline: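 Compounds are dispensed onto cells plated 4 h earlier at 1,000 per well, with HCVcc-Cre virus (about 0.5 moi) added next. Following 44 h of culture, luminescent signal is measured for 15 sec after 15 min with substrate at room temperature.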
# Potency is the fitted concentration of half-maximal effect; tags give direction and shape of the fitted curve.
row,SMILES,Potency
1,Cc1cccc2sc(N(CCCN(C)C)C(=O)c3sc4ccccc4c3Cl)nc12,"inconclusive [inhibitor, partial curve, poor fit]"
2,FC(F)(F)c1cnc(NNC(=S)Nc2cccnc2)c(Cl)c1,"inconclusive [inhibitor, single point]"
3,CCOC(=O)C(C(C)=O)c1nc(C)nc2c1nnn2Cc1ccccc1Cl (configuration not stated),"inconclusive [inhibitor, single point]"
4,c1ccc(N2CC3CCc4ccccc4C3=N2)cc1 (configuration not stated),inactive
5,CSCCC(C(=O)OCC(=O)c1ccc(C)c(C)c1)N1C(=O)c2ccccc2C1=O (configuration not stated),inactive
6,C/C(N)=C(/C#N)C(=O)COC(=O)c1cccc2ccccc12,"inconclusive [inhibitor, single point]"
7,Cc1cccc(OCC(=O)Nc2cc(S(=O)(=O)N3CCCCC3)ccc2N2CCN(C)CC2)c1,"inconclusive [inhibitor, single point]"
8,CCCS(=O)(=O)N1CCCC(C(=O)NCCN(Cc2ccccc2)C(C)C)C1 (configuration not stated),inactive
9,O=C1NC(=O)N(Cc2ccccc2)C(=O)/C1=C\C=C\c1ccco1,inactive
10,CSc1ncc(Cl)c(C(=O)Nc2cc(C)ccc2C)n1,inactive
11,CCOc1ccc(CCNC(=O)C2CCCN(c3nn4c(=O)cc(C)nc4s3)C2)cc1OCC (configuration not stated),"inconclusive [inhibitor, partial curve, poor fit]"
12,COc1cccc(CNn2c(-c3cccc(C)c3)nc3ccccc3c2=O)c1,"inconclusive [inhibitor, partial curve]"
13,O=C(NNC(=S)Nc1ccccc1)c1ccco1,inactive
14,O=C(COC(=O)C1CSC2(c3ccc(F)cc3)CCC(=O)N12)NC(=O)NC1CCCC1 (configuration not stated),inactive
15,CC(=C\c1ccco1)/C=C(\C#N)C(=O)NCCc1c[nH]c2ccccc12,"inconclusive [inhibitor, single point]"
16,Cc1cc2cc(C)c(NCCNC(=O)c3ccccc3)nc2cc1C,"inconclusive [inhibitor, partial curve]"
17,COc1ccc2cc(C(=O)C3CCCN(C(=O)c4cccnc4)C3)ccc2c1 (configuration not stated),"inconclusive [inhibitor, single point]"
18,COc1ccc(OC2C(=O)N(CCc3ccc(OC)c(OC)c3)C2c2ccc3c(c2)OCO3)cc1 (configuration not stated),"inconclusive [inhibitor, single point]"
19,CN1CCN(CCCCOc2cccc3ccccc23)CC1,active: 10 µM
20,Cc1cc(/C=C2\SC(=Nc3ccccc3)NC2=O)c(C)n1-c1ccc(S(N)(=O)=O)cc1,active: 4.47 µM
21,CC(C)(C)OC(=O)N1CCC(c2c(C(=O)NCC3CCN(C4CCCC4)C3)cnn2-c2ccc(F)cc2)CC1 (configuration not stated),inactive
22,Cc1c(Cl)cccc1NC(=O)CSc1nncn1-c1cccnc1,inactive
23,O=C1CC(c2cccc(O)c2)Oc2ccccc21 (configuration not stated),inactive
24,Cc1ccccc1NC(=O)c1ccc(F)c(S(=O)(=O)N2CCN(c3ccccn3)CC2)c1,"inconclusive [inhibitor, single point]"

row,SMILES,Potency
1,Cc1ccc(N(CC(=O)Nc2ccccc2C(=O)NCc2ccco2)S(=O)(=O)c2ccccc2)cc1C,"inconclusive [inhibitor, single point]"
2,CCOC(=O)c1c(C)[nH]c(C(=O)OCC(=O)NC(C)C)c1C,"inconclusive [inhibitor, partial curve]"
3,CCOC(=O)Cc1c[nH]c(=S)[nH]c1=O,inactive
4,c1ccn(-c2ccc(N3CCOCC3)cc2)c1,inactive
5,O=C(c1ccc(Cl)c(S(=O)(=O)N2CCCC2)c1)N1CCN(c2ccc(F)cc2)CC1,"inconclusive [inhibitor, single point]"
6,CCOC(=O)C1(Cc2ccc(OC)cc2)CCN(C(=O)c2ccc3[nH]ccc3c2)CC1,"inconclusive [inhibitor, single point]"
7,COc1ccc(N2CCN(C(=O)c3cccnc3SCc3cccc(Br)c3)CC2)cc1,"inconclusive [inhibitor, single point]"
8,CC(=O)Nc1nnc(-c2c(-c3ccccc3Cl)noc2C)o1,inactive
9,O=c1nc2ccc(Cl)cn2c2ccc(S(=O)(=O)N3CCOCC3)cc12,inactive
10,COc1ccc(CCNC(=O)c2ccc(OCc3c(C)noc3C)cc2)cc1OC,"inconclusive [inhibitor, full curve, poor fit]"
11,CCN(CC(=O)NCc1cccs1)C(=O)c1ccc([N+](=O)[O-])o1,inactive
12,COc1ccc(C(=O)c2no[n+]([O-])c2C(=O)c2ccc(OC)cc2)cc1,"inconclusive [inhibitor, single point]"
13,COc1cc(NC(=O)CN(C)S(=O)(=O)c2ccc3c(c2)CC(C)N3C(C)=O)cc(OC)c1 (configuration not stated),"inconclusive [inhibitor, single point]"
14,CCC(C)NS(=O)(=O)c1ccc(S(=O)(=O)N(CC(=O)Nc2ccccc2)Cc2ccco2)cc1 (configuration not stated),"inconclusive [inhibitor, partial curve]"
15,CCN1CCN(c2ccc(S(=O)(=O)N3CCCCC3)cc2NC(=O)c2ccc([N+](=O)[O-])o2)CC1,active: 3.55 µM
16,Cc1ccc(NC(=O)c2ccc(=O)[nH]n2)cc1S(=O)(=O)Nc1ccccc1Cl,inactive
17,O=C(CCC(=O)NCCCc1ccccc1)NCCCc1ccccc1,"inconclusive [inhibitor, single point]"
18,O=C(OCc1nc2ccccc2s1)c1ccccc1O,"inconclusive [inhibitor, single point]"
19,CCOc1ccccc1NC(=O)C(c1ccccc1)N1CCN(CC(=O)N2CCCC2)CC1 (configuration not stated),inactive
20,CC(=O)NCCC(=O)N1CCc2c([nH]c3ccccc23)C1c1cccc(Cl)c1 (configuration not stated),inactive
21,CCOC(=O)c1ccc(NC(=O)c2cc3ccccc3o2)cc1,inactive
22,CCOC(=O)c1c(C)oc2cc(Sc3ccccc3)c(O)c(O)c12,"inconclusive [inhibitor, single point]"
23,COc1c(OC(C)=O)ccc(/C=C/c2ccc3cccc(OCc4ccccc4)c3n2)c1[N+](=O)[O-],active: 7.08 µM
